# The other results are listed elsewhere or left out.
# B1: Epa1-NP-mutant-Y228W (Candida glabrata), Q6VBJ0 (protein)
# chain: MILNPALFLNKCVCIYTTLILLLLTNGGYATSSNDISLASKDPTTFPLGCSPDITTPKKGLSMELYSYDFRKKGSYPCWDAAYLDPNYPRTGYKSHRLLAKVDGVTGNINFYYHATKGCTPQLGHLPASYNYPKPLTMTNFTMLLYGYFRPKVTGFHTFTISADDLLFVNFGAGNAFDCCRRDSSADHFGNYQAYAIWGSKTAKDELTVHLDAGVYYPIRLFYNNREWDGALSFTFKTESNENTVSDFSEYFFSLDDTEEGCPGLISYDSSCASVKTSKIIGIDYHTETPNENLVPITKTIYHLGIPCTGTTTTPLCGSGFYDPLANKCVTINTSSTSSVTKTTSHTTSKEVSFHSSISSQKTLIPKSIPSPYGPIKSQSIPTEMETSSEISSSEYAFSDVISTPSHSPYTKKHSSLNSSSYTSTVIHSLTSYSISQGIFSTSLSEQNITSKSSTDKFSTATSMSNNITQSSIIISQFSTNNENYTTTSMHTSSDKISTETLNNSISTTTSILFSNSSTILKNNTTIISSDKDTHYHPVNPTIVCSTNKTEIICASITQPSISNSNNHWSSSVLKFNSTTVRSTLPSSAGSNETSINVPFSSSTESNTSTSSTSTSNSKMVRSTLPSSAGSNETSISVPFSSSTESNTSTSSTSTSNSKMVRSTLPSSAGSNETSINVPFSSSTESNTSTSSTSTSNSKTVRSTPFSSAGIIMTSLSQRNNKSASSYASSNSKCYNTADSCRKVHSTPSYLLTSSYTSEGVDYDCSLVSTKLKINDTNCVNNKHTTKSCLKTSVTTTIPTLEIKTARKSSSNTIGLHSYPTSSPNKSISSAPIIGYISSFKTIKTASPSYQTSDLTTITTITSLNNPGSTAVENTHESNDKSRKTSSNDISSKHSVIKETKDAVESSNKSHQTNTLKCSSIIIASSSHNSYESLGGTTLTLTLSKVYSPQNNDTLPFLEISEVNPSRTVLPESSKMMQYLTSTEERNKTARNTIATNIVSISTFHFEGEGNAIRMGYTQLLLMLIGIIVMNIGT
# Experiments:
# Test in all cases: glycan array binding signal (z-score within array); higher = stronger binding
# Conditions in all cases: glycan notation: IUPAC condensed, linker removed; mutation: Y228W
# [1] = target: Fuc(a1-2)Gal
# Summary of the method: (§1)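 The binding signal is a Z-score computed within each array and averaged over linkers. Arrays of the same protein sequence at different concentrations or buffers were also averaged together. Data originate from 3228 arrays in the Consortium for Functional Glycomics database, kept only where the protein sequence was available.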
# [2] = target: Fuc(a1-2)Gal(b1-3)GalNAc
# Summary of the method: as §1
# [3] = target: Fuc(a1-2)Gal(b1-3)GalNAc(a1-3)[Fuc(a1-2)]Gal(b1-4)Glc
# Summary of the method: as §1
# [4] = target: Fuc(a1-2)Gal(b1-3)GalNAc(a1-3)[Fuc(a1-2)]Gal(b1-4)GlcNAc
# Summary of the method: as §1
# [5] = target: Fuc(a1-2)Gal(b1-3)GalNAc(b1-3)Gal
# Summary of the method: as §1
# [6] = target: Fuc(a1-2)Gal(b1-3)GalNAc(b1-3)Gal(a1-4)Gal(b1-4)Glc
# Summary of the method: as §1
# [7] = target: Fuc(a1-2)Gal(b1-3)GalNAc(b1-4)[Neu5Ac(a2-3)]Gal(b1-4)Glc
# Summary of the method: as §1
# [8] = target: Fuc(a1-2)Gal(b1-3)GlcNAc
# Summary of the method: as §1
# [9] = target: Fuc(a1-2)Gal(b1-3)GlcNAc(b1-2)Man(a1-3)[Fuc(a1-2)Gal(b1-3)GlcNAc(b1-2)Man(a1-6)]Man(b1-4)GlcNAc(b1-4)GlcNAc
# Summary of the method: as §1
# [10] = target: Fuc(a1-2)Gal(b1-3)GlcNAc(b1-2)Man(a1-3)[Fuc(a1-2)Gal(b1-3)GlcNAc(b1-2)Man(a1-6)]Man(b1-4)GlcNAc(b1-4)[Fuc(a1-6)]GlcNAc
# Summary of the method: as §1
# [11] = target: Fuc(a1-2)Gal(b1-3)GlcNAc(b1-3)Gal(b1-4)Glc
# Summary of the method: as §1
# [12] = target: Fuc(a1-2)Gal(b1-3)GlcNAc(b1-3)GalNAc
# Summary of the method: as §1
# [13] = target: Fuc(a1-2)Gal(b1-3)GlcNAc(b1-3)[Fuc(a1-2)Gal(b1-3)GlcNAc(b1-6)]GalNAc
# Summary of the method: as §1
# [14] = target: Fuc(a1-2)Gal(b1-3)GlcNAc(b1-3)[Gal(b1-4)GlcNAc(b1-6)]Gal(b1-4)Glc
# Summary of the method: as §1
# [15] = target: Fuc(a1-2)Gal(b1-3)GlcNAc(b1-3)[Neu5Ac(a2-6)Gal(b1-4)GlcNAc(b1-6)]Gal(b1-4)Glc
# Summary of the method: as §1
# [16] = target: Fuc(a1-2)Gal(b1-3)GlcNAc6S
# Summary of the method: as §1
# [17] = target: Fuc(a1-2)Gal(b1-3)[Fuc(a1-4)]GlcNAc
# Summary of the method: as §1
# [18] = target: Fuc(a1-2)Gal(b1-3)[Fuc(a1-4)]GlcNAc(b1-2)Man(a1-3)[Fuc(a1-2)Gal(b1-3)[Fuc(a1-4)]GlcNAc(b1-2)Man(a1-3)]Man(b1-4)GlcNAc(b1-4)GlcNAc
# Summary of the method: as §1
# [19] = target: Fuc(a1-2)Gal(b1-3)[Fuc(a1-4)]GlcNAc(b1-2)Man(a1-3)[Fuc(a1-2)Gal(b1-3)[Fuc(a1-4)]GlcNAc(b1-2)Man(a1-6)]Man(b1-4)GlcNAc(b1-4)[Fuc(a1-6)]GlcNAc(b1-4)[Fuc(a1-6)]GlcNAc
# Summary of the method: as §1
# [20] = target: Fuc(a1-2)Gal(b1-3)[Fuc(a1-4)]GlcNAc(b1-3)[Fuc(a1-3)[Gal(b1-4)]GlcNAc(b1-6)]Gal(b1-4)Glc
# Summary of the method: as §1
# [21] = target: Fuc(a1-2)Gal(b1-3)[Fuc(a1-4)]GlcNAc(b1-3)[Gal(b1-4)GlcNAc(b1-6)]Gal(b1-4)Glc
# Summary of the method: as §1
# [22] = target: Fuc(a1-2)Gal(b1-4)Fuc(a1-3)]GlcNAc(b1-2)Man(a1-3)[Fuc(a1-2)Gal(b1-4)[Fuc(a1-3)]GlcNAc(b1-2)Man(a1-6)]Man(b1-4)GlcNAc(b1-4)GlcNAc
# Summary of the method: as §1
# [23] = target: Fuc(a1-2)Gal(b1-4)Glc
# Summary of the method: as §1
# [24] = target: Fuc(a1-2)Gal(b1-4)Glc6S
# Summary of the method: as §1
# [25] = target: Fuc(a1-2)Gal(b1-4)GlcNAc
# Summary of the method: as §1
# [26] = target: Fuc(a1-2)Gal(b1-4)GlcNAc(b1-2)Man
# Summary of the method: as §1
# [27] = target: Fuc(a1-2)Gal(b1-4)GlcNAc(b1-2)Man(a1-3)[Fuc(a1-2)Gal(b1-4)GlcNAc(b1-2)Man(a1-6)]Man(b1-4)GlcNAc(b1-4)GlcNAc
# Summary of the method: as §1
# [28] = target: Fuc(a1-2)Gal(b1-4)GlcNAc(b1-2)Man(a1-3)[Fuc(a1-2)Gal(b1-4)GlcNAc(b1-2)Man(a1-6)]Man(b1-4)GlcNAc(b1-4)[Fuc(a1-6)]GlcNAc
# Summary of the method: as §1
# [29] = target: Fuc(a1-2)Gal(b1-4)GlcNAc(b1-2)[Fuc(a1-2)Gal(b1-4)GlcNAc(b1-4)]Man(a1-3)[Fuc(a1-2)Gal(b1-4)GlcNAc(b1-2)Man(a1-6)]Man(b1-4)GlcNAc(b1-4)GlcNAc
# Summary of the method: as §1
# [30] = target: Fuc(a1-2)Gal(b1-4)GlcNAc(b1-3)Gal(b1-4)GlcNAc
# Summary of the method: as §1
# [31] = target: Fuc(a1-2)Gal(b1-4)GlcNAc(b1-3)Gal(b1-4)GlcNAc(b1-2)Man(a1-3)[Fuc(a1-2)Gal(b1-4)GlcNAc(b1-3)Gal(b1-4)GlcNAc(b1-2)Man(a1-6)]Man(b1-4)GlcNAc(b1-4)GlcNAc
# Summary of the method: as §1
# [32] = target: Fuc(a1-2)Gal(b1-4)GlcNAc(b1-3)Gal(b1-4)GlcNAc(b1-3)Gal(b1-4)GlcNAc
# Summary of the method: as §1
# [33] = target: Fuc(a1-2)Gal(b1-4)GlcNAc(b1-3)GalNAc
# Summary of the method: as §1
# [34] = target: Fuc(a1-2)Gal(b1-4)GlcNAc(b1-3)[Fuc(a1-2)Gal(b1-4)GlcNAc(b1-6)]GalNAc
# Summary of the method: as §1
# [35] = target: Fuc(a1-2)Gal(b1-4)GlcNAc(b1-3)[Fuc(a1-3)[Gal(b1-4)]GlcNAc(b1-6)]Gal(b1-4)Glc
# Summary of the method: as §1
# [36] = target: Fuc(a1-2)Gal(b1-4)GlcNAc(b1-6)GalNAc
# Summary of the method: as §1
# [37] = target: Fuc(a1-2)Gal(b1-4)GlcNAc6S
# Summary of the method: as §1
# [38] = target: Fuc(a1-2)Gal(b1-4)[Fuc(a1-3)]GlcNAc
# Summary of the method: as §1
# [39] = target: Fuc(a1-2)Gal(b1-4)[Fuc(a1-3)]GlcNAc(b1-2)Man(a1-3)[Fuc(a1-2)Gal(b1-4)[Fuc(a1-3)]GlcNAc(b1-2)Man(a1-6)]Man(b1-4)GlcNAc(b1-4)[Fuc(a1-6)]GlcNAc
# Summary of the method: as §1
# [40] = target: Fuc(a1-2)Gal(b1-4)[Fuc(a1-3)]GlcNAc(b1-2)[Fuc(a1-2)Gal(b1-4)[Fuc(a1-3)]GlcNAc(b1-4)]Man(a1-3)[Fuc(a1-2)Gal(b1-4)[Fuc(a1-3)]GlcNAc(b1-2)Man(a1-6)]Man(b1-4)GlcNAc(b1-4)GlcNAc
# Summary of the method: as §1
# [41] = target: Fuc(a1-2)Gal(b1-4)[Fuc(a1-3)]GlcNAc(b1-3)Gal(b1-4)[Fuc(a1-3)]GlcNAc
# Summary of the method: as §1
# [42] = target: Fuc(a1-2)Gal(b1-4)[Fuc(a1-3)]GlcNAc(b1-3)Gal(b1-4)[Fuc(a1-3)]GlcNAc(b1-3)Gal(b1-4)[Fuc(a1-3)]GlcNAc
# Summary of the method: as §1
# [43] = target: Fuc(a1-2)Gal(b1-4)[Fuc(a1-3)]GlcNAc(b1-3)GalNAc
# Summary of the method: as §1
# [44] = target: Fuc(a1-2)Gal(b1-4)[Fuc(a1-3)]GlcNAc(b1-3)[Neu5Ac(a2-6)Gal(b1-4)GlcNAc(b1-6)]Gal(b1-4)Glc
# Summary of the method: as §1
# [45] = target: Fuc(a1-2)Gal3S(b1-4)GlcNAc
# Summary of the method: as §1
binder,measurement,setting,value
B1,glycan array binding signal (z-score),[1],-0.022
same,glycan array binding signal (z-score),[2],-0.261
same,glycan array binding signal (z-score),[3],-0.4
same,glycan array binding signal (z-score),[4],-0.325
same,glycan array binding signal (z-score),[5],-0.075
same,glycan array binding signal (z-score),[6],-0.25
same,glycan array binding signal (z-score),[7],-0.209
same,glycan array binding signal (z-score),[8],-0.197
same,glycan array binding signal (z-score),[9],0.085
same,glycan array binding signal (z-score),[10],0.137
same,glycan array binding signal (z-score),[11],-0.304
same,glycan array binding signal (z-score),[12],-0.155
same,glycan array binding signal (z-score),[13],-0.183
same,glycan array binding signal (z-score),[14],-0.132
same,glycan array binding signal (z-score),[15],-0.437
same,glycan array binding signal (z-score),[16],-0.24
same,glycan array binding signal (z-score),[17],-0.345
same,glycan array binding signal (z-score),[18],0.401
same,glycan array binding signal (z-score),[19],-0.08
same,glycan array binding signal (z-score),[20],-0.48
same,glycan array binding signal (z-score),[21],0.072
same,glycan array binding signal (z-score),[22],0.469
same,glycan array binding signal (z-score),[23],-0.146
same,glycan array binding signal (z-score),[24],-0.195
same,glycan array binding signal (z-score),[25],0.021
same,glycan array binding signal (z-score),[26],-0.154
same,glycan array binding signal (z-score),[27],-0.158
same,glycan array binding signal (z-score),[28],-0.202
same,glycan array binding signal (z-score),[29],0.052
same,glycan array binding signal (z-score),[30],-0.257
same,glycan array binding signal (z-score),[31],0.051
same,glycan array binding signal (z-score),[32],0.005
same,glycan array binding signal (z-score),[33],-0.013
same,glycan array binding signal (z-score),[34],-0.259
same,glycan array binding signal (z-score),[35],-0.169
same,glycan array binding signal (z-score),[36],0.006
same,glycan array binding signal (z-score),[37],-0.4
same,glycan array binding signal (z-score),[38],-0.334
same,glycan array binding signal (z-score),[39],-0.013
same,glycan array binding signal (z-score),[40],-0.115
same,glycan array binding signal (z-score),[41],-0.202
same,glycan array binding signal (z-score),[42],-0.295
same,glycan array binding signal (z-score),[43],-0.204
same,glycan array binding signal (z-score),[44],-0.026
same,glycan array binding signal (z-score),[45],-0.25

# Reference: the supplement of paper PMC8728848
